# Source: PubChem BioAssay (NCATS)
# The inconclusive results got no clear call from the source; some entries with a clear call stand among them for comparison. A potency beside an inconclusive call is a rough fit, not a confirmed value. Calls of active or inactive are those of the source. The call rests on the fitted dose curve; in most records, active means well fitted inhibition curve with a large enough effect; inconclusive means small, poorly fitted or top-dose-only effect; inactive means no such curve, though single readings can be large or run the other way.
# Target: Retinaldehyde dehydrogenase 3 (Homo sapiens) (UniProt P47895)
# Assay: qHTS for Inhibitors of the Aldehyde Dehydrogenase Family (ALDH1A3) Confirmatory screens (AID 2061311); further: nearly all actives have a fitted effect of over 60% in size
# Settings: ALDH inhibition qHTS; activity change, negative = inhibition: at 46 µM (top of the series); series mostly up to 46 µM
# On the % scale 0 is the no-effect control and ±100 the full control effect; potency means the concentration at half of the fitted maximal effect; tags describe the fitted curve by direction and shape.
SMILES,"activity change, negative = inhibition",Potency,outcome
COc1cccc(C2c3c(ncn(CCCN4CCOCC4)c3=N)Oc3ccc4ccccc4c32)c1 (centres undefined),inactive: -18.7%,–,–
O=S(=O)(NCCCCCCNS(=O)(=O)c1c(F)cccc1F)c1ccc2c(c1)OCCO2,–,"inconclusive: 12.6 µM [inhibitor, single point]",–
c1nc(NCC2CC2)c2cc(-c3ccc4c(c3)OCO4)ccc2n1,–,–,inactive
OCC1OC(Oc2cc(O)cc(/C=C/c3ccc(OC4OC(CO)C(O)C(O)C4O)cc3O)c2)C(O)C(O)C1O (centres undefined),–,"inconclusive: 3.16 µM [inhibitor, full curve]",–
O=C(O)c1cccc(-n2cccc2/C=C2/C(=O)N(Cc3ccc(F)cc3)C(=O)N2Cc2ccc(F)cc2)c1,inactive: -15.6%,–,–
O=C(O)c1cccc(-n2cccc2)c1,–,–,inactive
C[C@@H]1O[C@@H](O[C@@H]2[C@@H](O)[C@@H](O[C@]3(CO)O[C@H](CO)[C@@H](O)[C@@H]3OC(=O)/C=C/c3ccc(O)cc3)O[C@H](CO)[C@H]2OC(=O)/C=C/c2ccc(O)cc2)[C@H](O)[C@H](O)[C@H]1O[C@@H]1O[C@@H](C)[C@H](O[C@@H]2OC[C@](O)(CO)[C@H]2O)[C@@H](O)[C@H]1O,–,"inconclusive: 4.78 µM [inhibitor, partial curve]",–
CCc1ccc(CN2CCC(C(=O)Nc3ccc(Oc4cccnc4)cc3)CC2)o1,inactive: -17.4%,–,–
N#Cc1ccc2[nH]cc(CCCCN3CCN(c4ccc5oc(C(N)=O)cc5c4)CC3)c2c1,–,active: 15.8 µM,–
O=C(O)c1cc(-c2c(-c3ccccc3)nn3ccccc23)n[nH]c1=O,–,"inconclusive: 20.1 µM [inhibitor, partial curve]",–
Cc1cc(N[S+](=O)([O-])c2ccc(NC(=O)Cc3ccc4nccnc4c3)cc2)no1,–,"inconclusive: 14.2 µM [inhibitor, partial curve, poor fit]",–
OC[C@H]1O[C@@H](O[C@H]2[C@H](O)[C@@H](CO)O[C@@H](OCc3ccccc3)[C@@H]2O[C@@H]2OC[C@](O)(CO)[C@H]2O)[C@H](O)[C@@H](O)[C@@H]1O,–,active: 12.3 µM,–
COc1cccc(Cc2nc3ccccc3nc2SCC(=O)N2CCN(c3ccccc3)CC2)c1,–,"inconclusive: 8.91 µM [inhibitor, partial curve, poor fit]",–
COc1ccc(C2Nc3ccccc3C(=O)N2Cc2ccc(C(C)(C)C)cc2)cc1COc1ccc(NC(C)=O)cc1 (centres undefined),–,"inconclusive: 10 µM [inhibitor, full curve]",–
Cc1cccc(Nc2nc(C#N)nc(NC3CCCC3)n2)c1,–,active: 17.8 µM,–
O=C(O)c1ccccc1Nc1cccc(OCc2ccc3ccccc3n2)c1,–,"inconclusive: 25.2 µM [inhibitor, partial curve]",–
CC1CC(=O)[C@]2(O)C(C(=O)OCCc3ccc(O)c(O)c3)=CO[C@@H](O[C@@H]3O[C@H](CO)[C@@H](O)[C@H](O)[C@H]3O)[C@H]12 (some centres undefined),–,"inconclusive: 12.3 µM [inhibitor, partial curve]",–
COc1cccc(CNC(=O)c2ccc3c(c2)sc2nc(-c4ccccc4)cn23)c1OC,inactive: -1.54%,–,–
Cc1noc(C)c1-c1csc(N2CCC(C(N)=O)CC2)n1,inactive: -2.79%,–,–
NC(=O)C1CCN(c2nc(-c3ccccc3[N+](=O)[O-])cs2)CC1,–,"inconclusive: 22.5 µM [inhibitor, partial curve, poor fit]",–

SMILES,"activity change, negative = inhibition",Potency,outcome
CCOc1ccc(NC(=O)Cn2c(Nc3cc(C)cc(C)c3)nc(C)cc2=O)cc1,inactive: -10.3%,–,–
CCOC(=O)c1ccoc1-c1ccc2ncnc(NCc3ncc[nH]3)c2c1,inactive: -12.1%,–,–
CC(=O)N[C@@H](CC(=O)O)C(=O)N[C@@H](CCC(=O)O)C(=O)N[C@H](C(=O)N[C@@H](CC(=O)O)C(=O)Nc1ccc2c(C)cc(=O)oc2c1)C(C)C,–,"inconclusive: 22.5 µM [inhibitor, partial curve]",–
O=[S+]([O-])(Nc1ccc(-c2nc3ccccc3[nH]2)cc1)c1ccc2c(c1)OCO2,–,"inconclusive: 12.7 µM [inhibitor, partial curve]",–
CN(CC(=O)O)c1ncnc2ccc(-c3ccc4c(c3)OCO4)cc12,–,"inconclusive: 28.3 µM [inhibitor, partial curve]",–
COc1cccc(CNc2ccc([S+](=O)([O-])Nc3cc4ccccc4s3)cc2)c1O,–,active: 11.3 µM,–
Oc1ccccc1C1Nc2cccc3cccc(c23)N1,–,active: 12.7 µM,–
O=C(O)c1ccc(-n2cccc2/C=C2\SC(=O)N(Cc3ccc(F)cc3)C2=O)cc1,–,"inconclusive: 14.2 µM [inhibitor, partial curve]",–
COc1ccc(-c2nc(CCNC(=O)c3c(F)cccc3Cl)cs2)cc1,–,–,inactive
COc1ccc(C2Nc3ccccc3C(=O)N2Cc2ccccc2)cc1COc1ccc(Cl)cc1 (centres undefined),–,"inconclusive: 11.3 µM [inhibitor, partial curve]",–
CN(C)[S+](=O)([O-])c1ccc(-c2cncc(NC(=O)c3cccs3)c2)cc1,–,active: 0.562 µM,–
Cc1cc(-c2nnc3n2CCCCC3)c(C)n1-c1ccc(Cl)c(Cl)c1,–,"inconclusive: 25.2 µM [inhibitor, partial curve]",–
NC(N)=NCCC[C@H](NC(=O)c1sccc1NS(=O)(=O)c1cccc2nsnc12)C(=O)O,inactive: -14.7%,–,–
O=C(NCc1ccccc1)C1CCN(c2nc(-c3ccc(Br)cc3)cs2)CC1,–,–,inactive
CN1CCc2sc(NC(=O)Cc3ccccc3)c(C(=O)Nc3ccc(Cl)cc3)c2C1,inactive: -5.43%,–,–
CCCCN(C)C(=O)Cn1nc(-c2ccc(Cl)cc2)ccc1=O,–,"inconclusive: 25.2 µM [inhibitor, partial curve]",–
O=C(O)c1ccccc1C(=O)Nc1ccc(-c2ccccc2)cc1,inactive: -21.1% [at 0.0073 µM],–,–
O=C(O)c1ccc(-n2cccc2/C=C2\SC(=O)N(Cc3ccc(Br)cc3)C2=O)cc1,–,"inconclusive: 20.1 µM [inhibitor, partial curve]",–
Cc1nnc(-c2cnn(C)c2N)n1CCc1ccccc1,–,"inconclusive: 28.3 µM [inhibitor, partial curve, poor fit]",–
